In PubChem BioAssay AID1645882 (National Center for Advancing Translational Sciences (NCATS), 2021):
Out of some 16,000 compounds screened, about 120 (0.75%) were called active. The inconclusive results got no clear call from the source; some entries with a clear call stand among them for comparison. The call rests on the fitted dose curve; in most records, active means well fitted inhibition curve with a large enough effect; inconclusive means small, poorly fitted or top-dose-only effect; inactive means no such curve, though single readings can be large or run the other way. No potency is given beside an inconclusive call; the fits are too rough.
Further: nearly all actives have a fitted effect of over 75% in size.
Potency means the concentration at half of the fitted maximal effect; tags describe the fitted curve by direction and shape.

Each compound was assayed against Rap guanine nucleotide exchange factor 3 (Homo sapiens) (UniProt O95398) (assay: Validation qHTS for antagonist of cAMP-regulated guanine nucleotide exchange factor 3 (EPAC1)). Settings: EPAC1 Rap1B-BODIPY-GDP exchange, fluorescence; activity change, negative = inhibition: at 150 µM (top of the series).
Sequence of UniProt O95398 (O95398 whole entry, looked up): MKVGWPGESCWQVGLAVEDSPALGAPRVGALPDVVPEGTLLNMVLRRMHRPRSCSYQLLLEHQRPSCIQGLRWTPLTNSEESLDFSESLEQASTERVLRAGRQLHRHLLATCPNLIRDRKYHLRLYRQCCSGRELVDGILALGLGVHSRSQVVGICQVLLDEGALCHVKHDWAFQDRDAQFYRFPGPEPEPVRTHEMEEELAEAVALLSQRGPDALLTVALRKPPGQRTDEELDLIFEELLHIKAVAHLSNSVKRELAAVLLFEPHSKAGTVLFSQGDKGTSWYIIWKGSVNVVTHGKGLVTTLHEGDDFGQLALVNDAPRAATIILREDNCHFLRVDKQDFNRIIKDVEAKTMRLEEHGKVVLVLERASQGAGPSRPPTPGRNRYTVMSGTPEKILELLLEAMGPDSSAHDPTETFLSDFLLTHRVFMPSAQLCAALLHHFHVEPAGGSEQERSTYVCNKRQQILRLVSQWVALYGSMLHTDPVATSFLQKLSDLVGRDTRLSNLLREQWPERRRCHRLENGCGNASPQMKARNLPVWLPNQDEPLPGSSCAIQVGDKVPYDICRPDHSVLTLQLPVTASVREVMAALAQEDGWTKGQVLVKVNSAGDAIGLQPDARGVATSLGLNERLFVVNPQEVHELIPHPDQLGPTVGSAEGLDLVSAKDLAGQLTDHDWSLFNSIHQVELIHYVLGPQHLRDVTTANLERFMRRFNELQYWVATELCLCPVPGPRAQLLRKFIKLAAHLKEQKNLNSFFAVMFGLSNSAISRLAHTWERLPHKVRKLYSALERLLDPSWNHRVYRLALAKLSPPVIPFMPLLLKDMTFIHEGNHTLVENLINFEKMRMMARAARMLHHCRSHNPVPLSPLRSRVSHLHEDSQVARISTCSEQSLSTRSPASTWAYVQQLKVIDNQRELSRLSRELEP
Excerpt: Assay Provider (PI): Xiaodong Cheng Ph.D.
The University of Texas Medical Branch, […], TX
In multi-cellular eukaryotic organisms, the effects of cAMP are transduced by two ubiquitously-expressed intracellular cAMP receptors, the classic protein kinase A/cAMP-dependent protein kinase (PKA/cAPK) and the more recently discovered exchange protein directly activated by cAMP/cAMP-regulated guanine nucleotide exchange factor (EPAC/cAMP-GEF). Both PKA and EPAC are ubiquitously expressed in all tissues, and an increase in intracellular cAMP levels will lead to the activation of both PKA and EPAC. Therefore, careful dissections of the individual role and relative contribution of EPAC and PKA within the overall cAMP signaling in various model systems are critical for further elucidating the mechanism of cAMP signaling. To date no EPAC-specific antagonists and agonist, as well as isoform-specific agonists have been reported, and developing EPAC-specific pharmacological probes to determine the physiological functions that EPAC play in the overall cAMP-mediated signaling remains a major challenge within the research field. Furthermore, identified regulators of EPAC may lead to new mechanism-based therapeutic strategies specifically targeting the EPAC / cAMP-signaling components as EPAC has been implicated to play important roles in major human pathological conditions such as diabetes, heart disease, and cancer.
This qHTS will be used to screen the Molecular Libraries Small Molecule Repository (MLSMR) as a concentration-titration series using the NCGC unique quantitative screening (qHTS) platform to find activators for EPAC1. In addition, this assay will also be used as a counterscreen for the EPAC2 qHTS. This fluorescent based assay is developed and validated for EPAC1 that measures exchange using EPAC effector Rap1 complex with BODIPY-GDP, a GDP analog with a tethered fluorophores. Activators are identified by monitoring the change in fluorescence signal as the exchanged free BODIPY-GDP has a reduced fluorescence compared to Rap1-bound BODIPY-GDP. Increase in signal (activation) is the desired outcome for the EPAC1 agonist while no activity in this assay is desired for the EPAC2 agonist counterscreen.
[1] de Rooij, J., Zwartkruis, F. J., Verheijen, M. H., Cool, R. H., Nijman, S. M., Wittinghofer, A., and Bos, J.L. (1998) Nature 396, 474-477.
Briefly, three uL of reagents (100 nM EPAC1, 250 nM RAP1B-BODIPY-GDP, 50 uM GDP) were dispensed into a 1536-well Greiner black solid-bottom medium binding assay plate. Controls and test compounds (23 nL) were transferred to the plate via a Kalypsys pin tool equipped with a 1536-pin array. The plates were centrifuged at 1,000 rpm for 15 seconds followed by 5 minute incubation at room temperature. The assay plates were read at 5 minute intervals for 30 minutes in the ViewLux plate reader using 480nm excitation and 540nm emission filters. The results were normalized to the […] positive control ATA and DMSO.
For CN(C)c1ccc(/C=C/C=C/c2ccnc3ccccc23)cc1, the “activity change, negative = inhibition” value was inactive: 24.3%. In the case of O=C(O[C@@H]1Cc2c(O)cc(O)cc2OC1c1ccc(O)c(O)c1)c1cc(O)c(O)c(O)c1 (some centres undefined), the Potency is reported as inconclusive [inhibitor, partial curve, poor fit]. For CCN1CCCC1CNC(=O)c1cnn(-c2ncc3c(n2)-c2ccc(OC)cc2CC3)c1C1CC1 (centres undefined), the “activity change, negative = inhibition” value was inactive: 12.9%. For CCCCCCCC(=O)CC[C@@H]1[C@@H](C/C=C\CCCC(=O)OC(C)C)[C@@H](O)C[C@H]1O, the Potency was inconclusive [inhibitor, full curve, poor fit]. For COc1cccc(-c2nccc(NCc3ccccc3OC)n2)c1, the Potency was inconclusive [inhibitor, partial curve]. For CC[C@H](C)[C@H]1O[C@]2(CC[C@@H]1C)C[C@@H]1C[C@@H](C/C=C(\C)[C@@H](O[C@H]3C[C@H](OC)[C@@H](O[C@H]4C[C@H](OC)[C@@H](O)[C@H](C)O4)[C@H](C)O3)[C@@H](C)/C=C/C=C3\CO[C@@H]4[C@H](O)C(C)=C[C@@H](C(=O)O1)[C@]34O)O2, the Potency was inconclusive [inhibitor, full curve]. For COc1cccc(Nc2ncc3nc(-c4ccccc4)c(=O)n(Cc4cccs4)c3n2)c1, the “activity change, negative = inhibition” value was inactive: 18.4%. With CC(C)(C)NC(=O)[C@H]1CN(Cc2cccnc2)CCN1C[C@@H](O)C[C@@H](Cc1ccccc1)C(=O)N[C@H]1c2ccccc2C[C@H]1O the Potency was inconclusive [inhibitor, full curve, poor fit]. In the case of C=C1CCC(O)C/C1=C\C=C1/CCCC2(C)C1CCC2C(C)/C=C/C(C)C(C)C (centres undefined), the Potency is reported as inconclusive [inhibitor, full curve]. With O=C1[C@H](Cc2ccccc2)NC/C=C\C[C@@H](c2ccc(Cl)cc2)N1Cc1ccccc1 the Potency was inconclusive [inhibitor, partial curve]. With CC/C(=C(/CC)c1ccc(OP(=O)(O)O)cc1)c1ccc(OP(=O)(O)O)cc1 the Potency was inconclusive [inhibitor, partial curve, poor fit]. For O=C(/C=C/c1ccc(O)c(O)c1)NC(=O)c1ccccc1O, the Potency was inconclusive [inhibitor, single point]. For C[C@@H](O[C@H]1OCCN(Cc2n[nH]c(=O)[nH]2)[C@@H]1c1ccc(F)cc1)c1cc(C(F)(F)F)cc(C(F)(F)F)c1, the Potency was inconclusive [inhibitor, full curve]. For COc1ccccc1CNc1nc(-c2ccc(C(=O)N(C)C)cc2)nc2ccccc12, the Potency was inconclusive [inhibitor, partial curve].
